From paper PMC6451091
The other results are listed elsewhere or left out. For part of these data: At the low end of the ranking the order means little. For part of these data: Measured with an extract: partners may take part in the binding.

How the values were obtained:
Conditions in all cases: 20 mM HEPES pH 7.9, 100 mM NaCl, 1 mM DTT, 0.2 mg/mL BSA, 0.02% Triton X-100, 2% milk, 0.4 mg/mL salmon testes DNA; 1 h; temperature not stated; high values mean tight binding; double strand, one strand shown; sequences stand for … in GCCTAGCAC…GTGCTAGGTCTTGATTCGCTTGACGCTGCTG
[1] = biological target: PU.1 (IVT) (UniProt P17947); test: protein-binding microarray (PBM)
[2] = biological target: PU.1 (endogenous, THP-1 nuclear extract) (UniProt P17947); test: nuclear extract protein-binding microarray (nextPBM)
[3] = biological target: T1, FLI1 (endogenous, THP-1 nuclear extract) (UniProt Q01543); test: as above
T1 sequence: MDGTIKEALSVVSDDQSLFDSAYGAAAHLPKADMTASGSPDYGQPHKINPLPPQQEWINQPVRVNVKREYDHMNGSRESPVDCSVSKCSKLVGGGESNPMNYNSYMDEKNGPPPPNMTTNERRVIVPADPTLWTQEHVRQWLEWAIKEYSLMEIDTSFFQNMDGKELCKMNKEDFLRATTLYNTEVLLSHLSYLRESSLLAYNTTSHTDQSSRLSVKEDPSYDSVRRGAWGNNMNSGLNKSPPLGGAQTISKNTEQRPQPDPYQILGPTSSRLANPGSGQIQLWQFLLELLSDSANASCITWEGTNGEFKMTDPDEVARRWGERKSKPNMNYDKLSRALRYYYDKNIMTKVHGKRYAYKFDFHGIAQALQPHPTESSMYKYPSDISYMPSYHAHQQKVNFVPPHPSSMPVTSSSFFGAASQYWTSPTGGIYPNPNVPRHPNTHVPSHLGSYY

Sequence | binding signal [1] [z-score] | binding signal [2] [z-score] | binding signal [3] [z-score]
AAAAAAAGGAAGTGGTAAAT | 6.55 | 6.54 | 3.12
ACAAAAAGGAACTGTGCACC | 2.1 | 1.71 | 1.01
AAAAAAGGGAAGTGATGTAC | 7.43 | 7 | 3.34
AAAAAAAGGAACTTGCTAGA | 5.48 | 4.85 | 1.73
GAAGAAAGGAAGTGAAAGCT | 2.48 | 2.46 | 2.34
TCAAGGAGGAAGTGGTCAGT | 4.99 | 5.41 | 3.1
GATAAGAGGAAGTCCTGTGT | 6.22 | 6.59 | 2.96
CCCATAGGGAAGTGGTCAGA | 3.99 | 4.49 | 1.53
GAAAACAGGAAGTCTAGGCT | 6.87 | 6.78 | 4.48
TTAAAGAGGAAGTAGGAGTT | 7.33 | 6.99 | 3.57
GAAAAGAGGATGTGGATCTG | 3.52 | 3.81 | 1.87
AGATGGAGGAAGTGGAAGAG | 3.87 | 3.65 | 2.58
GGGTGGAGGAAGTGATCCTC | 3.03 | 3.47 | 2.29
TGCAAGAGGAAGTGGAGGCA | 4.51 | 5.27 | 2.97
CGTGAGAGGAAGTGGGGGGT | 3.86 | 3.94 | 2.85
CCTTTGGGGAAGTGCAAGAT | 3.85 | 4.15 | 1.74
GGAATTAGGAAGTGGTTCTT | 4.29 | 4.4 | 2.1
CGAAAGTGGAAGTGCTAAAC | 3.35 | 2.88 | 1.8
ACAAAAAGGAACTGTGTCCC | 2.34 | 1.64 | 1.11
AAAAAAAGGACCTGGCTAGA | -0.268 | -0.407 | -0.226
AGGAAGAGGAACTGGGCCCT | 4.24 | 4.57 | 2.35
